Measurements reported in the supplement of paper PMC4604168 (melanoma cell lines).
This is one part of the list. Single values are uncertain, as repeats are few or missing.

Legend:
Test in all cases: cell count relative to DMSO control; melanoma cells; higher = more viable cells
Conditions in all cases: library dose: standard library concentration; 72 h
SkMel28 = test system: SkMel28
SkMel2 = test system: SkMel2
SkMel30 = test system: SkMel30
SkMel5 = test system: SkMel5
UACC257 = test system: UACC257
UACC62 = test system: UACC62
WM115 = test system: WM115
WM1716 = test system: WM1716
WM1745 = test system: WM1745
WM3526 = test system: WM3526
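Also: cells treated in 1,536-well plates, then fixed and DAPI-stained, with nuclei counted from automated high-throughput microscope images.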

Cn1c(=O)n(-c2ccc(C(C)(C)C#N)cc2)c2c3cc(-c4cnc5ccccc5c4)ccc3ncc21 + C=CCNC1=C2C[C@@H](C)C[C@H](OC)[C@H](O)[C@@H](C)/C=C(\C)[C@H](OC(N)=O)[C@@H](OC)/C=C\C=C(/C)C(=O)NC(=CC1=O)C2=O [Tanespimycin] (first compound 0.02 µM, partner dose 0.01 µM) was tested, and the cell count (SkMel28) was 43.1%, the cell count (SkMel2) was 70.3% and the cell count (SkMel30) was 67.6%. It also gave a cell count (SkMel5) of 43.5%, a cell count (UACC257) of 100% and a cell count (UACC62) of 62.1%. For the same compound, the cell count (WM115) was 12%, the cell count (WM1716) was 61.3% and the cell count (WM1745) was 61.5%. For the same compound, the cell count (WM3526) was 53.7%.

For Cn1c(=O)n(-c2ccc(C(C)(C)C#N)cc2)c2c3cc(-c4cnc5ccccc5c4)ccc3ncc21 + COc1cc(Nc2ncc(F)c(Nc3ccc4c(n3)NC(=O)C(C)(C)O4)n2)cc(OC)c1OC [Tamatinib] (first compound 0.02 µM, partner dose 2 µM), the cell count (SkMel28) was 59.9%, the cell count (SkMel2) was 74.1% and the cell count (SkMel30) was 74.9%. It also gave a cell count (SkMel5) of 35.3%, a cell count (UACC257) of 85.1% and a cell count (UACC62) of 69.7%. The cell count (WM115) was 68.1%, the cell count (WM1716) was 37.6% and the cell count (WM1745) was 28.2%. The cell count (WM3526) was 65.5%.

For Cc1cc(Nc2cc(N3CCN(C)CC3)nc(/C=C/c3ccccc3)n2)n[nH]1 + C[C@]1(c2nc3c(C(N)=O)cccc3[nH]2)CCCN1 [Veliparib] (first compound 0.2 µM, partner dose 7 µM), the cell count (SkMel28) was 50.5%, the cell count (SkMel2) was 89.1% and the cell count (SkMel30) was 78.1%. The cell count (SkMel5) was 60.3%, the cell count (UACC257) was 111% and the cell count (UACC62) was 64%. The cell count (WM115) was 63.1%, the cell count (WM1716) was 89.5% and the cell count (WM1745) was 70.7%. It also gave a cell count (WM3526) of 84.6%.

Work on CC(C)C[C@H](NC(=O)[C@H](Cc1ccccc1)NC(=O)c1cnccn1)B(O)O [Bortezomib] + Nc1nc(F)nc2c1ncn2[C@@H]1O[C@H](CO)[C@@H](O)[C@@H]1O [fludarabine] (first compound 0.005 µM, partner dose 1 µM) yielded a cell count (SkMel28) of 5.15%, a cell count (SkMel2) of 1.54% and a cell count (SkMel30) of 19%. For the same compound, the cell count (SkMel5) was 38.9%, the cell count (UACC257) was 39.4% and the cell count (UACC62) was 42%. It also gave a cell count (WM115) of 32.5%, a cell count (WM1716) of 15.3% and a cell count (WM1745) of 20.6%. The cell count (WM3526) was 20.5%.

Cc1cn(-c2cc(NC(=O)c3ccc(C)c(Nc4nccc(-c5cccnc5)n4)c3)cc(C(F)(F)F)c2)cn1 [nilotinib] + Cc1cc(N2CCOCC2)cc2[nH]c(-c3c(NC[C@@H](O)c4cccc(Cl)c4)cc[nH]c3=O)nc12 [BMS536924] (first compound 1 µM, partner dose 1 µM) showed a cell count (SkMel28) of 62%, a cell count (SkMel2) of 75% and a cell count (SkMel30) of 73.7%. It also gave a cell count (SkMel5) of 52.7%, a cell count (UACC257) of 130% and a cell count (UACC62) of 89.8%. The cell count (WM115) was 82%, the cell count (WM1716) was 111% and the cell count (WM1745) was 45.1%. It also gave a cell count (WM3526) of 62.6%.

In the case of Cc1cc(Nc2cc(N3CCN(C)CC3)nc(/C=C/c3ccccc3)n2)n[nH]1 + O=C(O)[C@@H]1[O][Sb](=[O])([O][Sb]2(=[O])[O][C@H]([C@H](O)CO)[C@H](O)[C@H](C(=O)O)[O]2)[O][C@H]([C@H](O)CO)[C@@H]1O [stibogluconate] (first compound 0.2 µM, partner dose 10 µM), the cell count (SkMel28) is reported as 70.4%, the cell count (SkMel2) is reported as 98.2% and the cell count (SkMel30) is reported as 103%. It also gave a cell count (SkMel5) of 74.2%, a cell count (UACC257) of 103% and a cell count (UACC62) of 74.4%. For the same compound, the cell count (WM115) was 56.7%, the cell count (WM1716) was 100% and the cell count (WM1745) was 64.3%. For the same compound, the cell count (WM3526) was 72.8%.

Work on CC(C)C[C@H](NC(=O)[C@H](Cc1ccccc1)NC(=O)c1cnccn1)B(O)O [Bortezomib] + C[C@]1(c2nc3c(C(N)=O)cccc3[nH]2)CCCN1 [Veliparib] (first compound 0.005 µM, partner dose 7 µM) yielded a cell count (SkMel28) of 19.4%, a cell count (SkMel2) of 50% and a cell count (SkMel30) of 32.1%. It also gave a cell count (SkMel5) of 28.2%, a cell count (UACC257) of 73.3% and a cell count (UACC62) of 49.8%. The cell count (WM115) was 29.6%, the cell count (WM1716) was 12.9% and the cell count (WM1745) was 21.7%. For the same compound, the cell count (WM3526) was 23.2%.

COc1ccc(C2=N[C@@H](c3ccc(Cl)cc3)[C@@H](c3ccc(Cl)cc3)N2C(=O)N2CCNC(=O)C2)c(OC(C)C)c1 [Nutlin-3] + Cn1c(=O)n(-c2ccc(C(C)(C)C#N)cc2)c2c3cc(-c4cnc5ccccc5c4)ccc3ncc21 [NVP-BEZ235] (first compound 0.5 µM, partner dose 0.02 µM) showed a cell count (SkMel28) of 42.4%, a cell count (SkMel2) of 67.6% and a cell count (SkMel30) of 74.8%. The cell count (SkMel5) was 59.9%, the cell count (UACC257) was 81.5% and the cell count (UACC62) was 75%. For the same compound, the cell count (WM115) was 60.9%, the cell count (WM1716) was 74.8% and the cell count (WM1745) was 85.1%. It also gave a cell count (WM3526) of 75.8%.

For CC(C)C[C@H](NC(=O)[C@H](Cc1ccccc1)NC(=O)c1cnccn1)B(O)O [Bortezomib] + OCCn1cc(-c2cnc3nnn(Cc4ccc5ncccc5c4)c3n2)cn1 [PF04217903] (first compound 0.005 µM, partner dose 5 µM), the cell count (SkMel28) was 22.3%, the cell count (SkMel2) was 27% and the cell count (SkMel30) was 30.4%. It also gave a cell count (SkMel5) of 23%, a cell count (UACC257) of 69.4% and a cell count (UACC62) of 58.9%. For the same compound, the cell count (WM115) was 24%, the cell count (WM1716) was 13.9% and the cell count (WM1745) was 11.7%. It also gave a cell count (WM3526) of 23.3%.

Compound COc1ccc(C2=N[C@@H](c3ccc(Cl)cc3)[C@@H](c3ccc(Cl)cc3)N2C(=O)N2CCNC(=O)C2)c(OC(C)C)c1 [Nutlin-3] + CN(c1ncccc1CNc1nc(Nc2ccc3c(c2)CC(=O)N3)ncc1C(F)(F)F)S(C)(=O)=O [PF562271] (first compound 0.5 µM, partner dose 0.4 µM) has a cell count (SkMel28) of 40.3%, a cell count (SkMel2) of 89.4% and a cell count (SkMel30) of 99.7%. For the same compound, the cell count (SkMel5) was 59.5%, the cell count (UACC257) was 76.9% and the cell count (UACC62) was 39.9%. For the same compound, the cell count (WM115) was 56.3%, the cell count (WM1716) was 60.3% and the cell count (WM1745) was 72.2%. It also gave a cell count (WM3526) of 101%.

Cn1c(=O)n(-c2ccc(C(C)(C)C#N)cc2)c2c3cc(-c4cnc5ccccc5c4)ccc3ncc21 + OCc1c[nH]c2ccccc12 [Indole-3-carbinol] (first compound 0.02 µM, partner dose 4 µM) was tested, and the cell count (SkMel28) was 42.8%, the cell count (SkMel2) was 63.1% and the cell count (SkMel30) was 62.6%. The cell count (SkMel5) was 82.4%, the cell count (UACC257) was 106% and the cell count (UACC62) was 65.8%. The cell count (WM115) was 99.4%, the cell count (WM1716) was 83% and the cell count (WM1745) was 66.6%. It also gave a cell count (WM3526) of 73.3%.
